# Reference: the supplement of paper PMC10037445
# Over roughly 2,900 compounds, “NF-kB SEAP reporter activity, fold change vs agonist alone” has its median near 0.99; the highest 2% begin near 2.6. Some of the results follow.
# Columns and labels:
# RAW-Dual [1] = experiment: NF-kB SEAP reporter activity, fold change vs agonist alone; higher = enhanced NF-kB activity
# Method in brief: (§1)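 Cytotoxic wells were those whose IncuCyte confluency was below 70% of agonist controls in both mask sets. The cells were RAW-Dual macrophages at 50,000 cells/well in DMEM on 384-well plates, dosed with 50 nL of library stock by pin tool, stimulated with a PRR agonist 1 h later, and kept at 37 °C, 5% CO2 for 20 hours. IRF and NF-κB reporter activity, as fold change over agonist-alone wells, came from supernatant read by QuantiLuc luminescence and QuantiBlue absorbance, respectively.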
# RAW-Dual [2] = experiment: NF-kB SEAP reporter activity, fold change vs agonist alone; cytotoxicity flag (confluency mask): not cytotoxic; higher = enhanced NF-kB activity
# Method in brief: as §1
# RAW-Dual [3] = experiment: NF-kB SEAP reporter activity, fold change vs agonist alone; cytotoxicity flag (confluency mask): cytotoxic (confluency <70% of control); higher = enhanced NF-kB activity; conditions: agonist: LPS (TLR4) 0.1 ug/mL
# Method in brief: as §1
# [4] = library stock concentration (final ~1000-fold dilution): 10 mM, cytotoxicity flag (confluency mask): not cytotoxic, agonist: Imiquimod (TLR7) […]
# [5] = library stock concentration (final ~1000-fold dilution): 10 mM, cytotoxicity flag (confluency mask): not cytotoxic, agonist: MPLA (TLR4) […]
# [6] = agonist: ODN 1826 (TLR9) 0.5 ug/mL
# [7] = agonist: Pam2CSK4 (TLR2/6) 0.1 ug/mL
# [8] = agonist: Pam3CSK4 (TLR2/1) 0.1 ug/mL
# [9] = library stock concentration (final ~1000-fold dilution): 2 mM, cytotoxicity flag (confluency mask): not cytotoxic, agonist: MPLA (TLR4) […]
smiles,measurement,setting,value
COc1cc2ncnc(Nc3ccc(Cl)cc3F)c2cc1OC,NF-kB SEAP reporter activity,RAW-Dual [1]; [4],1.44
same,NF-kB SEAP reporter activity,RAW-Dual [1]; [5],1.19
COc1cc2ncnc(Nc3ccc(Cl)cc3F)c2cc1OC (library stock concentration (final ~1000-fold dilution): 10 mM),NF-kB SEAP reporter activity,RAW-Dual [2]; agonist: LPS (TLR4) 0.1 ug/mL,1.63
same,NF-kB SEAP reporter activity,RAW-Dual [2]; [6],0.863
same,NF-kB SEAP reporter activity,RAW-Dual [2]; [7],1.14
same,NF-kB SEAP reporter activity,RAW-Dual [2]; [8],1.36
COc1cc(CCC(=O)CC(O)CCc2ccc(O)c(OC)c2)ccc1O (centres undefined) (library stock concentration (final ~1000-fold dilution): 10 mM),NF-kB SEAP reporter activity,RAW-Dual [2]; agonist: LPS (TLR4) 0.1 ug/mL,1.4
same,NF-kB SEAP reporter activity,RAW-Dual [2]; [6],1.07
same,NF-kB SEAP reporter activity,RAW-Dual [2]; [7],0.979
same,NF-kB SEAP reporter activity,RAW-Dual [2]; [8],1.25
COc1cc(CCC(=O)CC(O)CCc2ccc(O)c(OC)c2)ccc1O (centres undefined),NF-kB SEAP reporter activity,RAW-Dual [1]; [4],1.04
same,NF-kB SEAP reporter activity,RAW-Dual [1]; [5],1.1
Cc1[nH]c(C=C2C(=O)Nc3ccc(F)cc32)c(C)c1C(=O)NCCN1CCCC1 (library stock concentration (final ~1000-fold dilution): 2 mM),NF-kB SEAP reporter activity,RAW-Dual [2]; agonist: LPS (TLR4) 0.1 ug/mL,1.04
same,NF-kB SEAP reporter activity,RAW-Dual [2]; [6],0.183
same,NF-kB SEAP reporter activity,RAW-Dual [2]; [7],0.266
same,NF-kB SEAP reporter activity,RAW-Dual [2]; [8],0.414
Cc1[nH]c(C=C2C(=O)Nc3ccc(F)cc32)c(C)c1C(=O)NCCN1CCCC1,NF-kB SEAP reporter activity,RAW-Dual [1]; [9],0.63
Cl.Cl.Cn1cc(CNCC2CCN(c3ncc(C(=O)NO)cn3)CC2)c2ccccc21,NF-kB SEAP reporter activity,"RAW-Dual [1]; library stock concentration (final ~1000-fold dilution): 10 mM, cytotoxicity flag (confluency mask): cytotoxic (confluency <70% of control), agonist: MPLA (TLR4) […]",2.65
Cl.Cl.Cn1cc(CNCC2CCN(c3ncc(C(=O)NO)cn3)CC2)c2ccccc21 (library stock concentration (final ~1000-fold dilution): 10 mM),NF-kB SEAP reporter activity,RAW-Dual [3],7.01
CCc1ccc(Cc2ccc3c(c2)C2(OC3)OC(CO)C(O)C(O)C2O)cc1.O (centres undefined) (library stock concentration (final ~1000-fold dilution): 10 mM),NF-kB SEAP reporter activity,RAW-Dual [2]; agonist: LPS (TLR4) 0.1 ug/mL,1.14
same,NF-kB SEAP reporter activity,RAW-Dual [2]; [6],1.01
same,NF-kB SEAP reporter activity,RAW-Dual [2]; [7],1.05
same,NF-kB SEAP reporter activity,RAW-Dual [2]; [8],0.931
CCc1ccc(Cc2ccc3c(c2)C2(OC3)OC(CO)C(O)C(O)C2O)cc1.O (centres undefined),NF-kB SEAP reporter activity,RAW-Dual [1]; [4],0.928
same,NF-kB SEAP reporter activity,RAW-Dual [1]; [5],1.07
Cc1[nH]c(/C=C2\C(=O)Nc3ccccc32)c(C)c1CCC(=O)O,NF-kB SEAP reporter activity,RAW-Dual [1]; [4],0.702
same,NF-kB SEAP reporter activity,RAW-Dual [1]; [5],0.789
Cc1[nH]c(/C=C2\C(=O)Nc3ccccc32)c(C)c1CCC(=O)O (library stock concentration (final ~1000-fold dilution): 10 mM),NF-kB SEAP reporter activity,RAW-Dual [2]; agonist: LPS (TLR4) 0.1 ug/mL,0.732
same,NF-kB SEAP reporter activity,RAW-Dual [2]; [6],0.877
same,NF-kB SEAP reporter activity,RAW-Dual [2]; [7],0.622
same,NF-kB SEAP reporter activity,RAW-Dual [2]; [8],0.768
CC(=O)N1CCN(c2ccc(OCC3COC(Cn4ccnc4)(c4ccc(Cl)cc4Cl)O3)cc2)CC1 (centres undefined),NF-kB SEAP reporter activity,"RAW-Dual [1]; library stock concentration (final ~1000-fold dilution): 2 mM, cytotoxicity flag (confluency mask): not cytotoxic, agonist: Imiquimod (TLR7) […]",0.996
same,NF-kB SEAP reporter activity,RAW-Dual [1]; [9],1.09
CC(=O)N1CCN(c2ccc(OCC3COC(Cn4ccnc4)(c4ccc(Cl)cc4Cl)O3)cc2)CC1 (centres undefined) (library stock concentration (final ~1000-fold dilution): 2 mM),NF-kB SEAP reporter activity,RAW-Dual [2]; agonist: LPS (TLR4) 0.1 ug/mL,1.28
same,NF-kB SEAP reporter activity,RAW-Dual [2]; [6],0.888
same,NF-kB SEAP reporter activity,RAW-Dual [2]; [7],1.04
same,NF-kB SEAP reporter activity,RAW-Dual [2]; [8],0.972
CN(C)CCC=C1c2ccccc2CCc2ccccc21.Cl,NF-kB SEAP reporter activity,RAW-Dual [1]; [4],1.69
same,NF-kB SEAP reporter activity,RAW-Dual [1]; [5],1.29
